# Assay results taken from a collection of fitness landscapes (doi:10.1016/j.celrep.2020.107928).
# Over roughly 81,000 sequences, “one-hybrid fitness for binding NBS DNA” has its median near -0.1; the highest 2% begin near 0.36. This is one part of the list.
# B1: Caulobacter ParB omega fusion; a variant is named by its letters at X, in order, B8GW30 (parent)
# chain: MESVVVGEPGMSEGRRGLGRGLSALLGEVDAAPAQAPGEQLGGSREAPIEILQRNPDQPRRTFREEDLEDLSNSIREKGVLQPILVRPSPDTAGEYQIVAGERAWRAAQRAGLKTVPIMVRELDDLAVLEIGIIENVQRADLNVLEEALSYKVLMEKFERTQENIAQTIGKSXSHVANXMRLLXLPDEVQSYLVSGELTAXHARAIAAAADPVALAKQIIEGGLSVRETEALARKAPNLSAGKSKGGRPPRVKDTDTQALESDLSSVLGLDVSIDHRGSTGTLTITYATLEQLDDLCNRLTRGI
# Variants of: B1
# Test: one-hybrid fitness for binding NBS DNA (the Noc-binding site; scaled: cognate 1, non-cognate 0); higher = stronger binding
# Settings: with NBS DNA site
# Outline: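 Pre- and post-selection plasmids were Illumina-sequenced, three replicate libraries were pooled, and any variant with under 10 reads was removed. The libraries were Caulobacter ParB with four specificity codons randomised, selected in E. coli USO through a HIS3 reporter whose site is 19 bp from the promoter. Cells grew 48 hours at 37°C on M9 without histidine, with 0.1 mM IPTG and 5 mM 3-AT. Fitness is the log change in variant-to-wild-type read ratio, rescaled against cognate and non-cognate.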
row,Variant,one-hybrid fitness for binding NBS DNA
1,RKSN,≤ 0.2
2,VKKT,≤ 0.2
3,PGMM,≤ 0.2
4,QMYL,≤ 0.2
5,KRSY,≤ 0.2
6,QLAR,0.478
7,KDVC,≤ 0.2
8,SESQ,≤ 0.2
9,CQCR,≤ 0.2
10,PPMK,≤ 0.2
11,PLKG,≤ 0.2
12,RQVG,≤ 0.2
13,TRGQ,≤ 0.2
14,FDLP,≤ 0.2
15,RWLF,≤ 0.2
16,NPTI,≤ 0.2
17,YQCC,≤ 0.2
18,MFQR,≤ 0.2
19,RSER,≤ 0.2
20,HSAE,≤ 0.2
21,NQRR,≤ 0.2
22,DQKL,≤ 0.2
23,LMMY,≤ 0.2
24,PTNR,≤ 0.2
25,VANA,≤ 0.2
26,CKLC,≤ 0.2

row,Variant,one-hybrid fitness for binding NBS DNA
1,QYYK,≤ 0.2
2,FADR,≤ 0.2
3,WIGG,≤ 0.2
4,VYCR,≤ 0.2
5,NRGY,≤ 0.2
6,RWDL,≤ 0.2
7,ECIR,≤ 0.2
8,ATNI,≤ 0.2
9,EDSF,≤ 0.2
10,KAKY,≤ 0.2
11,ACSC,≤ 0.2
12,PPFG,≤ 0.2
13,SSGR,≤ 0.2
14,HWLV,≤ 0.2
15,YRHN,≤ 0.2
16,SDQY,≤ 0.2
17,VGDN,≤ 0.2
18,TTVL,≤ 0.2
19,EPIS,≤ 0.2
20,TEDC,≤ 0.2
21,QMPV,≤ 0.2
22,DLEG,≤ 0.2
23,CPDD,≤ 0.2
24,DPAL,≤ 0.2
25,RMHA,0.237
26,FLRK,≤ 0.2

row,Variant,one-hybrid fitness for binding NBS DNA
1,LDWS,≤ 0.2
2,RTSY,≤ 0.2
3,PTRL,≤ 0.2
4,GHKG,≤ 0.2
5,TEAS,≤ 0.2
6,NTSP,≤ 0.2
7,CPVL,≤ 0.2
8,TFDG,≤ 0.2
9,AWRS,≤ 0.2
10,FLAT,≤ 0.2
11,RSRT,0.602
12,CFDR,≤ 0.2
13,YAKM,≤ 0.2
14,SCNE,≤ 0.2
15,SLDR,≤ 0.2
16,TFMM,≤ 0.2
17,RQEN,≤ 0.2
18,DTYS,≤ 0.2
19,VRNM,≤ 0.2
20,VPSL,≤ 0.2
21,YLIC,≤ 0.2
22,SFNI,≤ 0.2
23,HVRG,≤ 0.2
24,CHHS,≤ 0.2
25,VQHY,≤ 0.2
26,DLVG,≤ 0.2

row,Variant,one-hybrid fitness for binding NBS DNA
1,CGSA,≤ 0.2
2,AATW,≤ 0.2
3,SRER,≤ 0.2
4,GCWW,≤ 0.2
5,SALD,≤ 0.2
6,TDPT,≤ 0.2
7,IVAK,≤ 0.2
8,RQGT,0.351
9,KYGV,≤ 0.2
10,THLH,≤ 0.2
11,VKYP,≤ 0.2
12,HLTG,≤ 0.2
13,CPMT,≤ 0.2
14,NKTE,≤ 0.2
15,EGYL,≤ 0.2
16,EMHF,≤ 0.2
17,QSCE,≤ 0.2
18,FVLG,≤ 0.2
19,MLVS,≤ 0.2
20,RNQE,≤ 0.2
21,GTMI,≤ 0.2
22,QKEH,≤ 0.2
23,IRTR,0.302
24,RWDA,≤ 0.2
25,ENDR,≤ 0.2
26,VICT,≤ 0.2

row,Variant,one-hybrid fitness for binding NBS DNA
1,CHIR,≤ 0.2
2,QDKS,≤ 0.2
3,NLRA,≤ 0.2
4,SAHN,≤ 0.2
5,TWKR,≤ 0.2
6,RKID,≤ 0.2
7,VMFL,≤ 0.2
8,QNSR,≤ 0.2
9,RSKF,≤ 0.2
10,DRIT,≤ 0.2
11,CIRS,≤ 0.2
12,STLM,≤ 0.2
13,PNGL,≤ 0.2
14,CQMR,≤ 0.2
15,VPCV,≤ 0.2
16,PPLH,≤ 0.2
17,HSGL,≤ 0.2
18,PPKE,≤ 0.2
19,LWAC,≤ 0.2
20,LWFS,≤ 0.2
21,DMVS,≤ 0.2
22,AEPA,≤ 0.2
23,NNEF,≤ 0.2
24,QIGY,≤ 0.2
25,FHKS,≤ 0.2
26,KPSE,≤ 0.2

row,Variant,one-hybrid fitness for binding NBS DNA
1,MLTP,≤ 0.2
2,RTPV,≤ 0.2
3,PPGR,≤ 0.2
4,HSSF,≤ 0.2
5,PKSA,≤ 0.2
6,FIKR,≤ 0.2
7,TVNA,≤ 0.2
8,GPLW,≤ 0.2
9,AESF,≤ 0.2
10,TIKW,≤ 0.2
11,TRVA,≤ 0.2
12,TSQP,≤ 0.2
13,ETSC,≤ 0.2
14,CKAE,≤ 0.2
15,KLNL,≤ 0.2
16,LIWC,≤ 0.2
17,KIKC,≤ 0.2
18,CHER,≤ 0.2
19,QVTP,≤ 0.2
20,WLLH,≤ 0.2
21,AFWW,≤ 0.2
22,WACC,≤ 0.2
23,STFC,≤ 0.2
